# Test results as given in the supplement of paper PMC3334620.
# Whole data set: some 33,000 sequences, median “E-score (-0.5 to 0.5)” near -0.012, cut for the highest 2% near 0.29. The list shows a part of the results.
# Molecular target: T1, Ybr033w (UniProt P38073)
# T1 sequence: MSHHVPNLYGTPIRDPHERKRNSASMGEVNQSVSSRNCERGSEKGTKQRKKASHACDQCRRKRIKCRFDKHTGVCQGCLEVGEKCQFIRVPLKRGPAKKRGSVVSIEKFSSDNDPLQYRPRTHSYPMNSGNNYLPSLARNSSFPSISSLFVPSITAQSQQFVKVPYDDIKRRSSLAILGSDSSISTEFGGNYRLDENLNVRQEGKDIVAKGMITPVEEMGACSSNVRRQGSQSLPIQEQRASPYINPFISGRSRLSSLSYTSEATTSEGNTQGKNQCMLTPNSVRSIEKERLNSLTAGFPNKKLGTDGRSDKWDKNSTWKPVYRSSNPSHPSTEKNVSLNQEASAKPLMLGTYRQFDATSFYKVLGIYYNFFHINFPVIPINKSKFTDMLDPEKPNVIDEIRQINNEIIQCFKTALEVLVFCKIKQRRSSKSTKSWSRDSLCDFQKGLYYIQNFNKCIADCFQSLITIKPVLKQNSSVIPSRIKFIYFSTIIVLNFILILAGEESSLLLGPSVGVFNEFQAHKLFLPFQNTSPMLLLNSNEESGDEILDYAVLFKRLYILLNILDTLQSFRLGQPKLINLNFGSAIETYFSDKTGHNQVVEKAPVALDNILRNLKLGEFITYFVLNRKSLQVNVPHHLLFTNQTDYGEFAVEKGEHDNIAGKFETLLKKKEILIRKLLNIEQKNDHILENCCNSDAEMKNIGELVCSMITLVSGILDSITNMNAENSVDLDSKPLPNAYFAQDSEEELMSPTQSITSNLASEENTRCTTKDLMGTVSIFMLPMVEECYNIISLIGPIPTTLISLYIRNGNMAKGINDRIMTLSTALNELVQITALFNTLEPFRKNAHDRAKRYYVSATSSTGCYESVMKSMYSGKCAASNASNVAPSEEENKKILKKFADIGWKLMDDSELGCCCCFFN
# Experiment: PBM E-score (8-mer binding enrichment) (E-score (-0.5 to 0.5)); higher = stronger / more preferred TF binding; most listed sequences are background and not binding sites
# Conditions: protein concentration: 200 nM; construct: GST-full length
# In short: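 For each ungapped eight-base word taken together with its reverse complement, the Universal PBM Analysis Suite assigned an E-score. Binding data came from GST-tagged yeast transcription factors, applied at about 100-200 nM, on universal all-10-mer Agilent arrays made double-stranded by primer extension. Fluorescent anti-GST marked bound protein, and scans were normalised with masliner.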
row,Sequence,PBM E-score
1,CTGACACA,-0.065
2,CACTGTAA,0.121
3,CCTATGAC,-0.203
4,CGTGGTCC,-0.203
5,GGAGTTAA,0.0238
6,ATCAGTGA,0.0369
7,AAAATGCT,0.195
8,CGATGTCC,-0.118
9,CCACAGGG,-0.209
10,CTGGCGAA,-0.125
11,AAGTCGAG,-0.0555
12,AGAAGGTA,0.208
13,AGTTGAGC,-0.00403
14,ATTCGTTC,0.238
15,GAAAACTC,0.107
16,AGAAGGAC,-0.207
17,CTGAGATC,-0.162
18,ATCTGAGC,0.113
19,GGCCCGCC,-0.374
20,CAGTCTTA,-0.084
21,GTTTAGAA,0.224
22,GTTCATTA,0.221
23,AACTAAGC,0.178
24,GAGACCCA,-0.188
25,ACCAGGTG,-0.152

row,Sequence,PBM E-score
1,CATTGCTC,-0.0785
2,GAAAATAA,0.304
3,ACGACGGA,0.0791
4,CAGGGAGA,-0.235
5,CTCCGAGA,-0.0837
6,TACCTCTA,0.129
7,AAGTTGGG,-0.0643
8,AACTCTGC,-0.0262
9,ATTTCGCG,0.159
10,GGAAACTA,0.04
11,ATTTCAAC,0.226
12,CGAGGCAG,-0.0937
13,TCATGCGA,0.0575
14,CCGCGCAA,-0.0219
15,CGATTCGA,0.173
16,ACACTAGT,0.0504
17,AATGCCCC,-0.279
18,TAACGCTA,0.0613
19,AATTGGGA,0.12
20,AACCTGTG,-0.0551
21,ATGGCTTG,-0.165
22,ATTTACTG,0.246
23,AACAATGT,0.115
24,AGTAAATA,0.208
25,AACGACCG,-0.166

row,Sequence,PBM E-score
1,AGATAGCG,-0.131
2,ATCTCTGC,0.0163
3,CGACGCTC,0.032
4,AGGTTGTC,-0.114
5,GTTTGCAA,0.168
6,CCTAGTCG,-0.139
7,CTACGAGC,-0.214
8,CTGGGCCC,-0.413
9,CTGCACAC,-0.25
10,ACTCAAGA,0.0903
11,AAGGCCTC,-0.21
12,ACGCTGTC,-0.168
13,ATATTTTC,0.342
14,TGGTTTAA,0.255
15,ATTCCCCC,-0.147
16,ATCTCGTG,-0.0243
17,ATCACTCC,-0.0156
18,ATACGCAG,-0.01
19,CACGCCCC,-0.196
20,GTGCAGTA,-0.0549
21,GAGCTGGA,0.0531
22,GCCAACAC,0.0424
23,CAATCTTC,0.236
24,ACGCTTCT,-0.2
25,CCCGTACA,-0.255

row,Sequence,PBM E-score
1,CGACTGAC,-0.0983
2,GATAGCTA,-0.114
3,CAAATATC,0.269
4,GTACCAGA,0.0617
5,CTCCCTGA,-0.281
6,ATATTGAG,0.259
7,AAGCTAAC,0.0872
8,AGACCCAT,-0.132
9,ACGGAGAA,0.23
10,AATTGCCT,0.0818
11,CCGTCTTC,-0.07
12,CACCAAAG,0.00707
13,CTACCTGA,-0.0586
14,ATGAACCC,0.0926
15,GGTGCAGA,-0.25
16,CGGGAGCA,-0.0612
17,CACTTTGC,0.00727
18,GCAGCAAC,0.0167
19,TATGTCCA,-0.0788
20,AGCGCTGG,0.0307
21,AATCCATT,0.231
22,AACTTCCA,0.103
23,AGGCCGAT,-0.157
24,GATGCAGC,0.0528
25,CAATTTCC,0.195

row,Sequence,PBM E-score
1,ATACATCC,0.164
2,CAACTAGG,0.0621
3,GACCGCCA,-0.199
4,AACTTGGG,-0.12
5,AAGCTCGC,-0.0765
6,CGTGAGTA,0.0154
7,ATGATCTC,0.0117
8,CAACCGCA,0.0511
9,CACCACCC,-0.0879
10,CGTACTTA,0.0098
11,CACTCTGG,0.00684
12,AGCCAATA,-0.0344
13,GAGAAGGC,-0.221
14,AAATAGTC,0.0679
15,GGAATCTA,0.11
16,CACTCCCC,-0.0144
17,CCATGGGG,-0.113
18,CGAGGTGA,-0.0327
19,AGTGGCAC,-0.239
20,CGGTAACC,-0.242
21,ACCGCTCC,-0.141
22,ACAGTCAT,0.00445
23,AACAGTCA,0.106
24,ATGAAGAG,0.0478
25,GTTCAAAC,0.00137

row,Sequence,PBM E-score
1,CTTCGAAA,0.0727
2,AAGTGAGG,-0.14
3,ATGACTCA,0.0306
4,CAAGAATA,0.24
5,ATCTACGC,0.0459
6,TAAAAGAA,0.269
7,TGGTAGAA,0.0488
8,CAGGCGGG,-0.192
9,CCCTACCG,-0.265
10,CATACTGC,0.0124
11,TGCACACA,0.0112
12,CTTCGATC,0.0364
13,CATGGCCG,-0.0287
14,CACAACGG,-0.172
15,GATCCGTA,-0.0738
16,CCTTGAGC,-0.0532
17,ATGGAAGG,-0.163
18,AAGCCGTC,-0.0475
19,GAACCTGC,0.0378
20,AGATTTAC,0.203
21,ACTGTCAT,-0.033
22,AAGAACAA,0.238
23,GGAGAGAA,0.0966
24,AAACAGGC,-0.216
25,ATGGTACC,-0.177

row,Sequence,PBM E-score
1,AGAATGTG,-0.0232
2,CCTGCCCG,-0.354
3,GTGAGATA,0.0437
4,CTTTACCA,0.0707
5,CCGTGCCG,-0.149
6,CCACGAAG,-0.0653
7,ATCCGAGC,-0.148
8,CACGCCAG,-0.297
9,AGACTAAA,-0.0471
10,CGTACAAA,0.0238
11,CAGAAGAG,-0.202
12,ACTATCTA,0.197
13,ATTCCGTG,0.16
14,GAGAAGAC,-0.0277
15,AGGAAGAT,0.323
16,AAATTTGT,0.303
17,CCGTCGCG,-0.0599
18,GGTGTTTA,0.00691
19,GAGCAAGA,-0.0424
20,CAGCCTCG,-0.177
21,GTTCGGGA,0.0767
22,CCGAGAGG,-0.271
